# Values of other authors in article PMC11006913.
# Substitutions are numbered along the chain they refer to. Some of the results follow.
# Columns and labels:
# Conditions in all cases: PBM; conditions not shown; double strand, one strand shown; scale: upbm affinity estimate (log intensity, higher = more binding, comparable within an allelic series)
# PBX4 (Homo sapiens) = biological target: T1, PBX4 (Homo sapiens) (UniProt Q9BYU1)
# T1 sequence: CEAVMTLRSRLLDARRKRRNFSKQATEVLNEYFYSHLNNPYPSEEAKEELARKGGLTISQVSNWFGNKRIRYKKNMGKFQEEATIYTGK
# [1] = biological target: T2, PBX4 R215Q (Homo sapiens) (UniProt Q9BYU1)
# T2 sequence: T1 sequence with R19Q
# [2] = biological target: PITX2 L100Q (Homo sapiens) (UniProt Q99697)
# [3] = biological target: PITX2 R108H (Homo sapiens) (UniProt Q99697)
# [4] = biological target: PITX2 R130W (Homo sapiens) (UniProt Q99697)
# [5] = biological target: PITX2 T114P (Homo sapiens) (UniProt Q99697)
# [6] = biological target: PROP1 R112Q (Homo sapiens) (UniProt O75360)
# Chain of UniProt O75360 (O75360 56-141 R112Q): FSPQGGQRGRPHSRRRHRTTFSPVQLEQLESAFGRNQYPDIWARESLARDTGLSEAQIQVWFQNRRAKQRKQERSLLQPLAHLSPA
sequence,measurement,setting,value
CTTGATGA [8-mer CTTGATGA],binding signal,PBX4 (Homo sapiens),10.7
same,binding signal,[1],10.1
ATTTGACG [8-mer ATTTGACG],binding signal,PBX4 (Homo sapiens),10.8
same,binding signal,[1],10.2
TAAGCTTA [8-mer TAAGCTTA],binding signal,[2],10.9
ATGACTAA [8-mer ATGACTAA],binding signal,[2],9.47
same,binding signal,[3],8.71
same,binding signal,[4],8.64
ATTTGTAA [8-mer ATTTGTAA],binding signal,[2],9.53
same,binding signal,[3],8.91
same,binding signal,[4],8.78
ACGTCAAC [8-mer ACGTCAAC],binding signal,PBX4 (Homo sapiens),10.8
same,binding signal,[1],10.1
GCTAATCC [8-mer GCTAATCC],binding signal,[2],11.5
same,binding signal,[3],9.55
same,binding signal,[4],8.3
same,binding signal,[5],10.1
AACTTAAA [8-mer AACTTAAA],binding signal,[2],9.37
same,binding signal,[3],8.7
same,binding signal,[4],8.69
ATTTAAGA [8-mer ATTTAAGA],binding signal,[2],9.84
same,binding signal,[3],8.8
same,binding signal,[4],8.63
CACAATAA [8-mer CACAATAA],binding signal,[2],9.5
same,binding signal,[3],8.83
same,binding signal,[4],8.78
GACCTCCC [8-mer GACCTCCC],binding signal,PBX4 (Homo sapiens),9.64
same,binding signal,[1],9.78
GAGATTTA [8-mer GAGATTTA],binding signal,[2],10.4
same,binding signal,[3],8.95
same,binding signal,[4],8.54
ATTACACA [8-mer ATTACACA],binding signal,[2],9.76
same,binding signal,[3],8.98
same,binding signal,[4],8.84
TAATGCAA [8-mer TAATGCAA],binding signal,[2],9.87
same,binding signal,[3],8.86
same,binding signal,[4],8.8
AACCTCGG [8-mer AACCTCGG],binding signal,PBX4 (Homo sapiens),9.88
same,binding signal,[1],9.85
AGATCAAT [8-mer AGATCAAT],binding signal,[2],9.81
same,binding signal,[3],8.72
same,binding signal,[4],8.52
ACGGGCGA [8-mer ACGGGCGA],binding signal,PBX4 (Homo sapiens),9.75
same,binding signal,[1],9.76
same,binding signal,[2],8.16
same,binding signal,[3],8.2
same,binding signal,[4],8.11
same,binding signal,[5],8.22
CGCTTTAG [8-mer CGCTTTAG],binding signal,PBX4 (Homo sapiens),9.96
same,binding signal,[1],9.93
ATCAATCA [8-mer ATCAATCA],binding signal,PBX4 (Homo sapiens),11.1
same,binding signal,[1],10.3
same,binding signal,[6],12.3
GTGCATTA [8-mer GTGCATTA],binding signal,[2],9.92
same,binding signal,[3],8.82
same,binding signal,[4],8.67
ACTTAACT [8-mer ACTTAACT],binding signal,[2],9.67
same,binding signal,[3],8.82
same,binding signal,[4],8.72
ATATCCTC [8-mer ATATCCTC],binding signal,[2],9.79
same,binding signal,[3],8.74
same,binding signal,[4],8.66
GTATTTTA [8-mer GTATTTTA],binding signal,[2],9.53
same,binding signal,[3],8.88
TAAGCTGA [8-mer TAAGCTGA],binding signal,[2],10.2
same,binding signal,[3],8.78
same,binding signal,[4],8.53
TAATCCTA [8-mer TAATCCTA],binding signal,[2],11.4
same,binding signal,[3],9.48
same,binding signal,[4],8.65
same,binding signal,[5],9.96
CACCCCAA [8-mer CACCCCAA],binding signal,PBX4 (Homo sapiens),9.96
same,binding signal,[1],9.94
GACTAATC [8-mer GACTAATC],binding signal,[2],10.8
AGTGATAA [8-mer AGTGATAA],binding signal,[2],9.73
same,binding signal,[3],8.91
same,binding signal,[4],8.85
GGCGATTA [8-mer GGCGATTA],binding signal,[2],10.3
same,binding signal,[3],8.84
same,binding signal,[4],8.36
GCGCACCC [8-mer GCGCACCC],binding signal,[2],8
same,binding signal,[3],8.04
same,binding signal,[4],7.96
same,binding signal,[5],8.04
GCAGCGAC [8-mer GCAGCGAC],binding signal,[2],8.14
same,binding signal,[3],8.03
same,binding signal,[4],7.99
same,binding signal,[5],8.06
CGGGCGGC [8-mer CGGGCGGC],binding signal,[2],8.24
same,binding signal,[3],7.86
same,binding signal,[4],7.67
same,binding signal,[5],7.96
CACCGGGC [8-mer CACCGGGC],binding signal,[2],7.99
same,binding signal,[3],7.86
same,binding signal,[4],7.71
same,binding signal,[5],7.97
TAATCCGA [8-mer TAATCCGA],binding signal,[2],11.3
same,binding signal,[3],9.58
same,binding signal,[4],8.62
same,binding signal,[5],9.93
GTCGCCGA [8-mer GTCGCCGA],binding signal,[2],8.11
same,binding signal,[3],8.11
same,binding signal,[4],8.12
same,binding signal,[5],8.15
CCGGCCAA [8-mer CCGGCCAA],binding signal,[2],8.31
same,binding signal,[3],8.11
same,binding signal,[4],8.06
same,binding signal,[5],8.12
ACTAATCT [8-mer ACTAATCT],binding signal,[2],11.2
same,binding signal,[3],9.29
same,binding signal,[4],8.56
same,binding signal,[5],9.47
CCGTCGCG [8-mer CCGTCGCG],binding signal,[2],8.34
same,binding signal,[3],8.21
same,binding signal,[4],8.03
same,binding signal,[5],8.22
GGCGTGCA [8-mer GGCGTGCA],binding signal,[2],8.21
same,binding signal,[3],8.09
same,binding signal,[4],8.18
same,binding signal,[5],8.16
GGATTAGA [8-mer GGATTAGA],binding signal,[2],11.4
same,binding signal,[3],9.53
same,binding signal,[4],8.55
same,binding signal,[5],10.1
CGGATTAG [8-mer CGGATTAG],binding signal,[2],11.3
same,binding signal,[3],9.53
same,binding signal,[4],8.33
same,binding signal,[5],9.91
CTAATCTC [8-mer CTAATCTC],binding signal,[2],11.2
same,binding signal,[3],9.43
same,binding signal,[4],8.58
same,binding signal,[5],9.67
CGTAATCC [8-mer CGTAATCC],binding signal,[2],11.1
same,binding signal,[3],9.3
same,binding signal,[4],8.43
same,binding signal,[5],9.74
ACTAACCC [8-mer ACTAACCC],binding signal,[2],9.5
same,binding signal,[3],8.65
same,binding signal,[4],8.53
same,binding signal,[5],8.74
TAATCTCA [8-mer TAATCTCA],binding signal,[2],10.9
same,binding signal,[3],9.19
same,binding signal,[4],8.66
same,binding signal,[5],9.46
CGACCCTC [8-mer CGACCCTC],binding signal,[2],8.28
same,binding signal,[3],8.15
same,binding signal,[4],8.11
same,binding signal,[5],8.13
AGTAATCC [8-mer AGTAATCC],binding signal,[2],11.2
same,binding signal,[3],9.33
same,binding signal,[4],8.61
same,binding signal,[5],9.8
GCGTCTCC [8-mer GCGTCTCC],binding signal,[2],8.27
same,binding signal,[3],8.27
same,binding signal,[4],8.19
same,binding signal,[5],8.28
GGCTTAAC [8-mer GGCTTAAC],binding signal,[2],11
same,binding signal,[3],9.09
same,binding signal,[4],8.52
same,binding signal,[5],9.41
